Publication PMC4336329 (PLoS ONE, 2015)
Among all 310,000 compounds or so, about 14,000 (4.5%) showed an effect of 50% or more. The effect is printed as a negative number. The list shows a part of the results.

The molecules below were run against human ether-à-go-go-related gene (hERG) potassium channel (human, UniProt Q12809) (assay: primary screen, population patch clamp on CHO cells stably expressing hERG).
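Also: peak tail current of the secondary pulse compared with the same well before compound.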

Chain of human ether-à-go-go-related gene (hERG) potassium channel (Q12809 whole entry, looked up): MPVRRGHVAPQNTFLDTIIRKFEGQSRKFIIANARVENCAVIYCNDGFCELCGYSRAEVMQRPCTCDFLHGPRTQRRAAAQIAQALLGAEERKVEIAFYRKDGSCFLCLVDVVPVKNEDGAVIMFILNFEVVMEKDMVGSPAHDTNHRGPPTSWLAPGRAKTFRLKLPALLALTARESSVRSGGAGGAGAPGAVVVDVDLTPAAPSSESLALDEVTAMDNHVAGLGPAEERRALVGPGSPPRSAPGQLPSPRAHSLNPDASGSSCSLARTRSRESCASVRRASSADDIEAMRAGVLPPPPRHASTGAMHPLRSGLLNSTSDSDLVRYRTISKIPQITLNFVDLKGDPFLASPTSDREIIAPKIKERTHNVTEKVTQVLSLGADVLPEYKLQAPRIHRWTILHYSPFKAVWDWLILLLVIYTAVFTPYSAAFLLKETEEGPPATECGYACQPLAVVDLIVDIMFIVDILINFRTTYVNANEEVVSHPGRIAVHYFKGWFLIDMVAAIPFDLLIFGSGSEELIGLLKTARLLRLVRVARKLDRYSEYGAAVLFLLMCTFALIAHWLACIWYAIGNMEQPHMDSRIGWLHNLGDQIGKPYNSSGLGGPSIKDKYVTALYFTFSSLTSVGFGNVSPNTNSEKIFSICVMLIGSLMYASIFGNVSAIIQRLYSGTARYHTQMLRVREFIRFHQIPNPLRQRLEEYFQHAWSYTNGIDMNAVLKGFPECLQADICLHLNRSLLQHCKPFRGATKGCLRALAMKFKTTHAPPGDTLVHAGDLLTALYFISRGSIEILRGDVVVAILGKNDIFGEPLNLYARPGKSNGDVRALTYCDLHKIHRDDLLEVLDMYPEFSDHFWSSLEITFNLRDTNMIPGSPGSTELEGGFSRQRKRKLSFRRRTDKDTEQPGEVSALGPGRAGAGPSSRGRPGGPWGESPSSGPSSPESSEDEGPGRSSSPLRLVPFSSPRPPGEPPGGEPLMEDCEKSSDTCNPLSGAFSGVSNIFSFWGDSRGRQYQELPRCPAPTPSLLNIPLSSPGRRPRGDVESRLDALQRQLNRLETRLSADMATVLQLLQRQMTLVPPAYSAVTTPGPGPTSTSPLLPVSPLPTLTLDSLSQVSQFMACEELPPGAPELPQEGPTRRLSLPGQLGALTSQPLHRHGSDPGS

| Compound | hERG current change (%, negative = inhibition) at 10uM |
| --- | --- |
| CNC(=O)/C(C#N)=C/c1ccc(-c2ccc(Cl)cc2)o1 | 8.39% |
| Cc1ccccc1C(=O)N1CCN(c2ccc(NC(=O)c3ccc4c(c3)OCO4)cc2)CC1 | -44.6% |
| CCN1CCN(S(=O)(=O)c2ccc3c(c2)NC(=O)CS3)CC1 | 19.9% |
| Cc1ccc(Cn2c(C)cc3c(c2=O)C(c2cccs2)C(C#N)=C(N)O3)cc1 (stereo not drawn) | 15.8% |
| O=C(Cc1n[nH]c(=O)c2ccccc12)OCc1c(Cl)cccc1Cl | 12.2% |
| CNC(=O)c1c(Br)cnn1-c1ccc(C)cc1 | 18.2% |
| CCOC(=O)N1CCN(C(=O)CSc2nnc(-c3c[nH]c4ccccc34)n2CCOC)CC1 | 11.3% |
| CCOC(=O)c1ccccc1NC(=O)Cn1cnc2c(nnn2-c2ccc(C)cc2)c1=O | 4.73% |
| COCCn1c(C)c(C)c(S(=O)(=O)c2ccccc2)c1N | 7.07% |
| N=C1SCC(=O)N1/N=C/c1ccccc1 | 12.2% |
| Cn1nc(C(=O)Nc2ccc(S(=O)(=O)N3CCCC3)cc2)ccc1=O | -8.6% |
| CC(OC(=O)CCC(=O)c1cccs1)C(=O)Nc1ccccc1[N+](=O)[O-] (stereo not drawn) | -2.34% |
| CCOC(=O)C1(CCc2ccccc2)CCN(Cc2ccc(O)cc2)CC1 | -83.4% |
| COc1ccc(CN2CC(C(=O)NCCCOC(C)C)CC2=O)cc1 (stereo not drawn) | 0.406% |
| CCc1cccc(N(CC(=O)NCc2ccc(F)cc2)C(=O)c2csnn2)c1 | -25.1% |
| COc1cccc(-c2n[nH]c(=S)n2Cc2ccco2)c1 | 8.9% |
| COc1ccc(OC)c2sc(N(CCN(C)C)C(=O)/C=C/c3cccs3)nc12.Cl | -43.6% |
| COc1cc2c(cc1OC)CN(CC(=O)Nc1ccc(C)c(C)c1)CC2 | 5.14% |
| Cc1cc(C)n2nc(Sc3ncccc3[N+](=O)[O-])nc2n1 | 19.7% |

| Compound | hERG current change (%, negative = inhibition) at 10uM |
| --- | --- |
| CCCCN(C(=O)CCC(=O)Nc1cc(C)on1)C(C(=O)NC(C)(C)C)c1cccc(OC)c1OC (stereo not drawn) | 18.1% |
| O=C(NCc1cccnc1)c1ccc(NC(=O)c2cccc([N+](=O)[O-])c2)cc1 | -19.2% |
| O=C(NCc1ccco1)C1CCCN(S(=O)(=O)c2cc(Cl)ccc2Cl)C1 (stereo not drawn) | 0.994% |
| C/C(=N\NC(=O)C(O)(c1ccccc1)c1ccccc1)c1ccc(NC(=O)CCCC(=O)O)cc1 | 16.2% |
| CC(C)NC(=O)c1cc2c(s1)CCCC2 | 9.08% |
| CCN(CC)C(=O)Nc1ccc(C(=O)OC)cc1 | -1.77% |
| Cc1ccccc1NC(=O)c1cccc(N2C(=O)C3CCC(C)CC3C2=O)c1 (stereo not drawn) | 25.9% |
| COc1ccc(Br)cc1CN1CCN(C(=O)c2ccco2)CC1.O=C(O)C(=O)O | -34.9% |
| COc1ccc(OC)c(CCNC(=O)Cn2nc(C)c3c(C)n(-c4ccc(C)cc4)nc3c2=O)c1 | -59% |
| CCOc1ccc(/C(C)=N/N2C(=O)C(CC(=O)Nc3ccc(OC)cc3[N+](=O)[O-])SC2=Nc2cccc(C)c2C)cc1 (stereo not drawn) | -7.5% |
| COc1ccc(NC(=O)C2(c3cccs3)CCOCC2)cc1 | 14.1% |
| COc1ccc(S(=O)(=O)NC(CC(=O)NCCc2ccccc2)c2ccco2)cc1 (stereo not drawn) | 9.24% |
| CNC(=S)Nc1ccc(C)cc1 | 12.8% |
| COc1cccc(C(=O)Nc2cc(C(=O)NCCc3ccccc3)ccc2Cl)c1 | 11.4% |
| O=C(COC(=O)c1nc(Cl)ccc1Cl)Nc1ccc2[nH]c(=O)[nH]c2c1 | -6.46% |
| c1cncc(-c2nnc3n2CCC3)c1 | 13.8% |
| Cc1nc2ncnn2c(C)c1CCC(=O)N1CCN(Cc2ccccc2)CC1 | -7.67% |
| CC1CCCN(C(=O)CN(C)S(=O)(=O)c2cccc3nsnc23)C1 (stereo not drawn) | -4.93% |
| Cc1cccc(Nc2nc(N)c([N+](=O)[O-])c(N3CC(C)CC(C)C3)n2)c1 (stereo not drawn) | 16.1% |

| Compound | hERG current change (%, negative = inhibition) at 10uM |
| --- | --- |
| CCNC(=S)Nc1ccc(OC(F)(F)F)cc1 | 1.94% |
| COc1ccc(-c2nnc(SCC(=O)NCc3ccco3)o2)cc1 | 0.0381% |
| COc1ccccc1NC(=S)NC1CCCCCC1 | -3.32% |
| O=C(CCCOc1ccccc1)NC(=S)Nc1ccccc1 | 8.74% |
| CC(C(=O)NCCc1ccc(Cl)cc1)n1c(=O)c2cccn2c2cccnc21 (stereo not drawn) | -6.64% |
| Cc1ccc(-c2nnc(SCC(=O)N/N=C/c3c(C)nn(-c4ccccc4)c3C)n2-c2ccc(C)cc2)cc1 | 4.21% |
| O=C(CSc1nccn(-c2ccc(F)c(Cl)c2)c1=O)NC1CCCC1 | 13.6% |
| COc1cc(NC(=O)Cn2ccsc2=N)cc(OC)c1.Cl | 9.11% |
| O=C(NCc1ccco1)c1ccc(S(=O)(=O)N2CCCCCC2)cc1 | -12.6% |
| Nc1ccc(SCC(=O)Nc2cccc([N+](=O)[O-])c2)cc1 | -9.16% |
| Cc1cc(Cl)c(S(N)(=O)=O)cc1OCC(N)=O | 5.39% |
| CCOC(=O)c1nnn(-c2nonc2N)c1CN1CCCCCC1 | 0.52% |
| COc1cc(F)c(C2=CC(=O)CC(C)(C)C2)cc1F | -5.26% |
| COc1ccc(NS(=O)(=O)/C=C/c2ccccc2)cc1 | -0.961% |
| Oc1ccc(C2=Nn3c(nnc3-c3ccco3)SC2)cc1O | 0.591% |
| Cc1ccc(S(=O)(=O)Nc2ccc(N(C)C)cc2)cc1 | 7.99% |
| Cc1ccc[n+](CC(=O)N2CCCc3ccccc32)c1.[Cl-] | 25.7% |
| CS(=O)(=O)N1CCC(C(=O)N2CCN(c3ccccc3F)CC2)CC1 | 14.2% |
| COC(=O)c1ccc(C(=O)N2CCCC(CNC(=O)c3ccccc3Cl)C2)cc1 (stereo not drawn) | 3.62% |
